Laboratory results published in PubChem BioAssay AID1347417 (National Center for Advancing Translational Sciences (NCATS), 2020).
The campaign covered roughly 120,000 compounds. About 5,300 (4.4%) were called active. The shares of active, inactive and inconclusive entries below differ from those in the screen. Calls follow the shape of the dose curve; as a rule, active = well fitted inhibition curve with a large enough effect; inconclusive = small, poorly fitted or top-dose-only effect; inactive = no such curve, though single readings can be large or run the other way. A potency beside an inconclusive call is a rough fit, not a confirmed value.

Test: qHTS Primary assay for Inhibitors of Plasmodium falciparum Dd2 growth in vitro; also: nearly all actives have a fitted effect of over 65% in size;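 as to activity, negative = inhibition: plate controls were DMSO vehicle for no effect and reference drug for full effect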
Details: P. falciparum Dd2 growth, SYBR Green, 72 h; activity, negative = inhibition: at 28.9 µM (top of the series) unless noted; series mostly up to 28.9 µM
Method in brief: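 Readout: SYBR Green fluorescence, 485 nm excitation, 535 nm emission, after ~16 h lysis at 37C. Before that, Dd2-infected red cells (2.5% hematocrit) grew 72 h with compound, 29 uM top final concentration.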
Potency is read from the fitted curve at half-maximal effect; tags tell the direction and shape of the fitted curve.

Structure (SMILES)	Potency	activity, negative = inhibition	outcome
CCN(CC)CCN(C(=O)c1ccco1)c1nc2cc(C)cc(C)c2s1	inconclusive: 20 µM [inhibitor, single point]		
CCOc1cc(-c2ccc(OC(=O)c3ccc(C)cc3)c(OC)c2)cc(=O)c2c(C)oc(C)c12	inconclusive: 11.2 µM [inhibitor, single point]		
COc1ccc(S(=O)(=O)N2[C@@H]3CC[C@H]2CC(NC(=O)c2ccncc2)C3)cc1OC (some centres not stated)		inactive: 7.31%	
Cc1cc(C)c2c(CC(=O)Nc3ccc(S(=O)(=O)N4CCCCC4)cc3)coc2c1	inconclusive: 20 µM [inhibitor, single point]		
CC(CNC(=O)c1cc(CN2CCOCC2)on1)c1ccccc1 (configuration not stated)		inactive: -4.48%	
COc1ccc(C(=O)N2CCC3(CC2)CC(Cc2nc(-c4ccccc4)no2)CCO3)cc1 (configuration not stated)			inactive
Fc1ccc(CSc2nc(NCc3ccccc3)c3ccccc3n2)cc1	inconclusive: 17.8 µM [inhibitor, single point]		
O=C(NCC1CC1)c1nc2c(o1)CCN(Cc1cccc(O)c1)CC2			inactive [at 44.1 µM]
CC(C)(C)NC(=O)C[C@@H]1CCNC[C@@H]1Cc1cc(-c2ccc(C(C)(C)C)cc2)on1	active: 3.98 µM		
CCCNC(=O)N1CCC(Cc2nc(-c3ccccc3)n[nH]2)C1 (configuration not stated)	inconclusive: 12.6 µM [inhibitor, single point]		
CN1C[C@H](NCc2nccn2C)CCC[C@@H](C(=O)NC2CCOCC2)CC1=O		inactive: -6.95% [at 44.1 µM]	
COc1ccc(N2C(=O)C3(CCCCC3)C2C(=O)NCCCN2CCCC2)cc1 (configuration not stated)	active: 4.47 µM		
O=C(NCc1cccs1)c1ccc(CSc2nc3ccncc3n2Cc2ccccc2)cc1	inconclusive: 12.6 µM [inhibitor, single point]		
COc1cccc(C2=NS(=O)(=O)N(C)C(C(=O)Nc3ccccc3SC)=C2)c1	inconclusive: 12.6 µM [inhibitor, partial curve]		
N[C@H]1CO[C@H]2[C@@H]1OC[C@@H]2n1cc(CC2CCCCC2)nn1	inconclusive: 11.2 µM [inhibitor, partial curve, poor fit]		
COc1ccc([C@H]2C[C@@H](O)[C@@H](O)[C@@H]2NC(=O)c2cc(C)oc2C(F)(F)F)cc1	inconclusive: 15.8 µM [inhibitor, single point]		
C=CCCC(CN1CCCC1)Oc1cncc(C(=O)N2CCCC2)n1 (configuration not stated)	active: 7.94 µM		
O=C1[C@H]2CN(Cc3ccc(F)cc3)C[C@H]2C(=O)N1CCN1CCc2ccccc2C1	inconclusive: 10 µM [inhibitor, single point]		
O=C(NCC1CCCCO1)c1ccc(OC2CCN(C(=O)C3CC3)CC2)cc1 (configuration not stated)	inconclusive: 20 µM [inhibitor, partial curve, poor fit]		
O=C1c2c(nc(CNCc3ccc4c(c3)OCO4)n2Cc2ccccc2)NCCN1Cc1ccccc1F	inconclusive: 1.12 µM [inhibitor, partial curve, poor fit]		
COc1ccc(-c2cc(N3CCC(NC(=O)CCc4cccc(OC)c4)CC3)n[nH]2)cc1	inconclusive: 3.98 µM [inhibitor, single point]		
Cc1cc(F)ccc1OC1CN(Cc2ccc(N(C)C)cc2)C1	inconclusive: 3.16 µM [inhibitor, single point]		
O=C(C[C@@H]1CCNC[C@@H]1Cc1cc(COc2ccccc2)on1)N1CCN(c2ccc(F)cc2)CC1	inconclusive: 2.51 µM [inhibitor, partial curve, poor fit]		

Structure (SMILES)	Potency	activity, negative = inhibition	outcome
COc1ccc(-c2cc3nc4c(c(=O)n3[nH]2)CN(C(=O)c2sccc2C)CC4)cc1	inconclusive: 0.447 µM [inhibitor, full curve]		
CC(C)(C)OC(=O)N1CCC(c2c(C(=O)NCc3ccco3)cnn2-c2ccccc2Cl)CC1	inconclusive: 12.6 µM [inhibitor, single point]		
Cc1nc(C(=O)N2CC(=O)N(C3CCCCC3)CC(OCc3ccccc3)C2)cs1 (configuration not stated)	inconclusive: 11.2 µM [inhibitor, partial curve, poor fit]		
Cc1ccc(-c2ccc3nnc(CNC(=O)c4cccnc4)n3n2)cc1		inactive: -15.8%	
O=C(Nc1ccc(Cl)cc1C(F)(F)F)c1cc(S(=O)(=O)N2CCOCC2)ccc1F		inconclusive: -53.7% [inhibitor] [at 0.594 µM]	
COc1cc(CN2CCc3nc(N4CCN(c5ccccn5)CC4)ncc3C2)cc(OC)c1OC	inconclusive: 6.31 µM [inhibitor, partial curve]		
COCc1noc(Cn2ncc(N(C)CCc3ccccc3)cc2=O)n1	inconclusive: 1.12 µM [inhibitor, partial curve, poor fit]		
Cc1cc2nc3n(c(=O)c2n1CC(=O)NC1CCCCC1)CCCCC3			inactive
CCCn1c(C)cnc1C1CCN(C(=O)NC)C1 (configuration not stated)		inactive: 8.75%	
CC(C)NC(=O)C[C@@H]1O[C@H](CNS(=O)(=O)c2ccccc2)[C@@H](O)[C@H]1O		inactive: 31.3% [at 44.1 µM]	
COc1cc2c(cc1OC1CCCC1)NC(=O)C21CCN(c2ccnc(C)n2)CC1	active: 12.6 µM		
O=C(Nc1ccc(Br)cc1)C(Cc1ccccc1)NS(=O)(=O)c1cccc2nsnc12 (configuration not stated)	inconclusive: 20 µM [inhibitor, partial curve, poor fit]		
O=C(NC1CCC(O)CC1)C1CCCN(c2nc(-c3ccccc3)nc3c2CCC3)C1 (configuration not stated)	inconclusive: 8.91 µM [inhibitor, partial curve, poor fit]		
CNC(C)c1cccc(C(F)(F)F)c1 (configuration not stated)		inactive: -6.88% [at 44.1 µM]	
CCN1c2cc(C(=O)Nc3cccc(OC(F)(F)F)c3)ccc2C(=O)N2CCCCC21 (configuration not stated)	active: 4.47 µM		
C[C@H](O)c1c(-c2ccc(Cl)cc2)noc1C(=O)NC1CC1	inconclusive: 12.6 µM [inhibitor, partial curve]		
OC1CC(c2cc(N3CCC(c4nc5ccccc5[nH]4)CC3)ncn2)C1 (configuration not stated)	inconclusive: 11.2 µM [inhibitor, single point]		
COc1cc2c(cc1OC)C(COc1ccc(C(C)C)cc1)N(C(=O)COc1ccccc1)CC2 (configuration not stated)	active: 11.2 µM		
CCS(=O)(=O)c1nc(S(=O)(=O)c2ccc(C)cc2)c(NCc2ccccc2Cl)s1	inconclusive: 11.2 µM [inhibitor, single point]		
COc1ccccc1N1CCN(C(=O)c2ccc3c(c2)C(O)CCCCCN3C)CC1 (configuration not stated)	inconclusive: 3.98 µM [inhibitor, single point]		
CN1CC(=O)N(c2ccc(Cl)cc2)Cc2c(NCC(C)(C)C)ncnc21	inconclusive: 11.2 µM [inhibitor, single point]		
O=C(Nc1cccc(-c2nnc3n2CCCC3)c1)C1CCC1	inconclusive: 7.94 µM [inhibitor, partial curve, poor fit]		
O=C(CCc1nc(C2CCCN2Cc2ccc3[nH]ccc3c2)no1)N1CCCC1 (configuration not stated)	inconclusive: 0.794 µM [inhibitor, full curve]		

Structure (SMILES)	Potency	activity, negative = inhibition	outcome
O=C(c1ccc2nc(-c3ccccc3)cn2c1)N1C[C@@H]2CCC[C@H]1C2		inactive: -12.5%	
O=C(NC1CCCC1)N1CCc2nnc(C3CC3)n2CC1		inactive: 5.95%	
CCc1cccc(NC(=O)c2coc(=O)c3ccccc23)c1	inconclusive: 7.08 µM [inhibitor, partial curve]		
COC(=O)c1ccc(Cl)cc1NC(=O)N1CCC(CN2CCC(C)CC2)CC1	active: 10 µM		
COc1cccc(NC(=O)c2oc3ccccc3c2NC(=O)Cc2cccc(C)c2)c1	inconclusive: 17.8 µM [inhibitor, single point]		
Cc1ccc(C(=O)NC2CCN(C(=O)N3CC4CC(C3)[C@H]3CCCC(=O)N3C4)CC2)cc1 (some centres not stated)			inactive
Cc1cccc(CN2C[C@@H]3C(=O)N(CCN4CCc5ccccc5C4)C(=O)[C@@H]3C2)c1	inconclusive: 15.8 µM [inhibitor, partial curve, poor fit]		
O=C1OCCN1C1CCN(Cc2ccc(F)cc2)CC1		inactive: 5.89% [at 44.1 µM]	
CN(C)Cc1cn(C[C@H]2C[C@@H]3CCN2C[C@@H]3C(=O)Nc2nccs2)nn1		inactive: 22% [at 44.1 µM]	
COc1ccc(-c2noc(-c3cccn3CC(=O)N3CCN(c4ccccc4F)CC3)n2)cc1F	active: 2.51 µM		
CCOc1ccccc1N(CC)C(=O)c1cc2ccc3cccnc3c2[nH]1	active: 12.6 µM		
Cn1c2ccc(F)cc2c2nnc(SCCN3CCCCC3)nc21	inconclusive: 0.562 µM [inhibitor, full curve]		
O=C1CCN(Cc2ccc3c(c2)CCO3)CCCCCCN1	inconclusive: 10 µM [inhibitor, single point]		
O=C(NCCCN1CCN(c2cccc(Cl)c2)CC1)c1nnc(Cc2ccc(F)cc2Cl)o1	inconclusive: 11.2 µM [inhibitor, single point]		
Fc1ccc(C2Cn3nnc(-c4nc(-c5ccccc5Cl)no4)c3CO2)cc1 (configuration not stated)		inactive: -7.83%	
COc1ccccc1Oc1ncccc1CNCc1c(F)cccc1Cl	inconclusive: 0.501 µM [inhibitor, full curve]		
Cc1ccc(C(=O)N2CCC(C(NC(=O)c3cccs3)C(=O)NC3CC3)CC2)cc1 (configuration not stated)			inactive
CC(=O)Nc1ccc(CN2CCCC3(COc4ccccc4C(=O)N3)C2)cc1 (configuration not stated)	inconclusive: 20 µM [inhibitor, single point]		
COc1ccc(CN2CCN(C(=O)COc3ccccc3)CC2)c(OC)c1	inconclusive: 11.2 µM [inhibitor, single point]		
Cc1ccc(OCc2nc(C3CN(C(=O)c4ccc(Cn5nc(C)cc5C)o4)C3)no2)cc1			inactive
COc1cccc(-c2cc(C3CCN(C(=O)Nc4cc(Cl)ccc4C)CC3)[nH]n2)c1	inconclusive: 1.26 µM [inhibitor, single point]		
